# In PubChem BioAssay (Tox21):
# Values joined by “and” are separate entries in the source; they are usually repeats but may differ in a detail not shown here. Equal entries are not always repeated. This list was built around the results that the source calls inconclusive (neither active nor inactive); the mix of calls is not that of the screen. For part of these data: A potency beside an inconclusive call is a rough fit, not a confirmed value. Active and inactive are the calls of the source. Unless noted, the call rests on the fitted dose curve; in most records, active means well fitted curve in the direction sought with a large enough effect in the repeat runs; inconclusive means weak or mixed curves; inactive means no such curve, though single readings can be large; an effect the other way counts as inactive or inconclusive.
# What was measured:
# [1] = qHTS assay to identify small molecule agonists of the constitutive androstane receptor (CAR) signaling pathway - cell viability counter screen (AID 1224836); further: nearly all actives have a fitted effect of over 45% in size
# Procedure, shortened: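 Cells were seeded and incubated 4 hrs. Compounds were added across 15 concentrations together with PK11195 at 0.75 uM final. Plates were incubated 23 hrs at 37 C. CellTiter-Fluor was added and fluorescence measured.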
# [2] = qHTS assay to identify small molecule antagonists of the constitutive androstane receptor (CAR) signaling pathway - cell viability counter screen (AID 1224837); further: nearly all actives have a fitted effect of over 45% in size
# Procedure, shortened: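 Fluorescence from CellTiter-Fluor served as the viability signal. Human hepatoma HepG2 cells stably bearing hCAR and CYP2B6-2.2kb received compound plus CITCO (50 nM final) for 23 hr.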
# [3] = qHTS assay to identify small molecule antagonists of the estrogen related receptor signaling pathway with the pleiotropic PPARgamma coactivator (PGC) from Tox21 10K library - cell viability counter screen (AID 1224840; active means well fitted cell-killing curve with a large enough effect in the repeat runs, not every such curve was filed as active; inconclusive means weak or mixed curves, or effect the other way; inactive means no such curve, though single readings can be large or run the other way; further: nearly all actives have a fitted effect of over 40% in size)
# Procedure, shortened: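 Compounds in DMSO, alongside positive and negative controls, were pinned onto PGC/ERR cells (2,000 per well). Exposure lasted 17.5 hours at 37 C, followed by a 30-minute CellTiter-Fluor incubation and fluorescence reading.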
# [4] = qHTS assay to identify small molecule antagonists of the estrogen related receptor signaling pathway with the pleiotropic PPARgamma coactivator (PGC) from Tox21 10K library (AID 1224841; call rule not given here; further: actives are mostly falling curves and most rising ones were filed inactive; nearly all actives have a fitted effect of over 50% in size)
# Procedure, shortened: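 Compound exposure ran 18 hours at 37 C in PGC/ERR cells (2,000/well) that had first rested 6 hours in a 37 C/5% CO2 incubator. Luciferase activity was then detected with One-Glo after a 30-minute room-temperature step.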
# [5] = molecular target: Thyrotropin receptor (Homo sapiens) (UniProt P16473); assay: qHTS assay to identify small molecule agonists of the thyroid stimulating hormone receptor (TSHR) signaling pathway (AID 1224843; calls by dose curve; further: nearly all actives have a fitted effect of over 45% in size); details: TSHR-HEK293 cells, cAMP HTRF, agonist mode, 30 min; activation: at 92.4 µM (top of the series) unless noted
# Procedure, shortened: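 Screening of the Tox21 10K collection used HEK293 cells engineered with TSHR at 800 cells per well. After a 30-min room-temperature compound exposure, HTRF cAMP reagents were added and fluorescence recorded 1 h later.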
# [6] = qHTS assay to identify small molecule agonists of H2AX - cell viability counter screen (AID 1224847; calls by dose curve; further: nearly all actives have a fitted effect of over 30% in size)
# Procedure, shortened: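 Cytotoxicity counter screen in wild-type CHO-K1 cells: a 3 hr compound treatment at 37C across 15 concentrations, followed by CellTiter-Glo luminescence to gauge viable cells.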
# [7] = qHTS assay to identify small molecule agonists of H2AX (AID 1224845; active means well fitted activation curve with a large enough effect in the signal ratio in the repeat runs, not every such curve was filed as active; inconclusive means weak or mixed curves; the % refers to the signal ratio); details: CHO-K1 phospho-H2AX Ser139 HTRF, 3 h; series mostly up to 154 µM
# Procedure, shortened: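 Phospho-H2AX Ser139 measured by HTRF (ex 320 nm; em 665 and 620 nm) after 24 hr antibody incubation. Compounds, 15 concentrations, 0.76% DMSO, were applied to CHO-K1 cells for 3hr at 37C before lysis.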
# [8] = qHTS assay to identify small molecule agonists of the hypoxia (HIF-1) signaling pathway (AID 1224846; active means well fitted activation curve with a large enough effect in the signal ratio in the repeat runs, not every such curve was filed as active; inconclusive means weak or mixed curves; the % refers to the signal ratio); details: HRE-bla ME-180 cells, beta-lactamase ratio, 17 h; activation: at 76.8 µM (top of the series) unless noted
# Procedure, shortened: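 Measured by blue/green FRET after loading CCF4-AM: beta-lactamase expressed from a hypoxia response element in ME-180 cells. Test agents were delivered in DMSO and left 17 hrs; cells had been plated 5 hrs earlier in low-serum (0.5% dialyzed FBS) medium.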
# [9] = molecular target: Nuclear receptor subfamily 1 group I member 3 (Homo sapiens) (UniProt Q14994); assay: qHTS assay to identify small molecule agonists of the constitutive androstane receptor (CAR) signaling pathway (AID 1224839); further: nearly all actives have a fitted effect of over 15% in size;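 on activation: HepG2 cells stably carrying human CAR and a CYP2B6 luciferase reporter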
# Procedure, shortened: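 Cells were plated and incubated 4 hrs, then dosed with compounds at 15 concentrations. PK11195 was added to 0.75 uM final. After 24 hrs at 37 C, luciferase luminescence was measured.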
# [10] = qHTS assay to identify small molecule agonists of the hypoxia (HIF-1) signaling pathway - cell viability counter screen (AID 1224844; calls by dose curve; further: nearly all actives have a fitted effect of over 50% in size)
# Procedure, shortened: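 Luminescent ATP content (CellTiter-Glo, 30 min, room temperature) served as the viability measure in HRE-bla ME-180 cells exposed to compounds for 17 hrs in low-serum medium (0.5% dialyzed FBS).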
# [11] = qHTS assay to identify small molecule antagonists of the estrogen related receptor (ERR) signaling pathway from Tox21 library (AID 1224848); further: nearly all actives have a fitted effect of over 50% in size
# Procedure, shortened: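 Antagonist-mode screen of the Tox21 10K library in an NTP-provided ERR reporter cell line; 18 h compound exposure at 37 C, luminescence measured with ONE-Glo.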
# [12] = qHTS RealTime-Glo MT Cell Viability Assay in HepG2 cells - 24 hour (AID 1224867); further: nearly all actives have a fitted effect of over 50% in size
# Procedure, shortened: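 Tox21 10K library screened in qHTS format on HepG2 cells carrying RealTime-Glo reagents. Compounds were added after a 5 h preincubation, and the luminescent signal from continuous culture was measured repeatedly during 40 h treatment.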
# [13] = qHTS assay to identify small molecule agonists of the estrogen related receptor signaling pathway with the pleiotropic PPARgamma coactivator (PGC) from Tox21 10K library (AID 1224842); further: nearly all actives have a fitted effect of over 15% in size
# Procedure, shortened: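 Luminescence from One-Glo (30 min, room temperature) measured after PGC/ERR cells had 18 h at 37 C with pinned compound (23 nL in DMSO). Cells had been seeded at 2,000 per well and pre-incubated 6 h.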
# [14] = qHTS RealTime-Glo MT Cell Viability Assay in HEK293 cells - 32 hour (AID 1224868); further: nearly all actives have a fitted effect of over 50% in size
# Procedure, shortened: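 Luminescence generated by NanoLuc from substrate produced by living HEK293 cells served as the viability signal. Each value reflects the reading at its stated time point during continuous 40 h compound exposure at 37 C.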
# Potency means the concentration at half of the fitted maximal effect; tags describe the fitted curve by direction and shape or compound fluorescence and quenching.
# UniProt Q14994, sequence (Q14994 whole entry, looked up): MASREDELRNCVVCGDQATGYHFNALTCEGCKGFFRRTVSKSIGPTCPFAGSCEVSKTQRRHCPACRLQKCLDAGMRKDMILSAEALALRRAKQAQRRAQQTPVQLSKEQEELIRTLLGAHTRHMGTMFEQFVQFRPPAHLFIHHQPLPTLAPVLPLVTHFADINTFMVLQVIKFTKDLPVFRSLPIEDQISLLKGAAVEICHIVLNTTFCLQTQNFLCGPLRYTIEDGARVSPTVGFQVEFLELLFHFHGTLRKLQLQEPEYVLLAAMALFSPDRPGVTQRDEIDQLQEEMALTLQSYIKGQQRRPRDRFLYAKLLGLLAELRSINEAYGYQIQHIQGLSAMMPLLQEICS
# UniProt P16473, sequence (P16473 whole entry, looked up): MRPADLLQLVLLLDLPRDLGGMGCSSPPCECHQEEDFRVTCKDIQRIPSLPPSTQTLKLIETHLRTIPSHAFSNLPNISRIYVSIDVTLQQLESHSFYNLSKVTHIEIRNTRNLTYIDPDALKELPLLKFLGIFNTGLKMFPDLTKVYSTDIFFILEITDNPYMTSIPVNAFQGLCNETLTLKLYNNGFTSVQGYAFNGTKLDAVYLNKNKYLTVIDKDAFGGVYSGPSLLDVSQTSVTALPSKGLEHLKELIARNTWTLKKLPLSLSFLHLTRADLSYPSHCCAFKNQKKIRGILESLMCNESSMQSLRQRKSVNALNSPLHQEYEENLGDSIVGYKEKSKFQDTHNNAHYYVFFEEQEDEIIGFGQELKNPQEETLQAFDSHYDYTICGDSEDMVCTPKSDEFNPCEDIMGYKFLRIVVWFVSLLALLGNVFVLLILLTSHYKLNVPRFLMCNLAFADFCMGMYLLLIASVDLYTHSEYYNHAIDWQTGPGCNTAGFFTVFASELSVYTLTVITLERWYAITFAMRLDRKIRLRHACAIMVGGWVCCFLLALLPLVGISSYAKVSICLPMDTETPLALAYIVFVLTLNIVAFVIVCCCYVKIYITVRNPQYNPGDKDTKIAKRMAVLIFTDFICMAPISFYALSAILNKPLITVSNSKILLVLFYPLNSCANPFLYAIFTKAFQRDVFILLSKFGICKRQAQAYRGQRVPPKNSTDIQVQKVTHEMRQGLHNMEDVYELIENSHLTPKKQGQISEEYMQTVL
smiles,measurement,setting,value
CCc1nn(C2CCCCC2)c2cc(C3(C#N)CCC(C(=O)O)CC3)ccc12 (stereo not drawn),Potency,[1],"inconclusive: 48.6 µM [cytotoxic, partial curve, poor fit]"
same,Potency,[2],"inconclusive: 27.3 µM [cytotoxic, partial curve]"
same,Potency,[3],"inconclusive: 24.3 µM [cytotoxic, partial curve, poor fit]"
same,Potency,[4],"inconclusive: 61.1 µM [falling, partial curve]"
same,Potency,[5],inactive
O=[N+]([O-])c1ccc(O)cc1,Potency,[1],"inconclusive: 24.3 µM [cytotoxic, full curve] and inconclusive: 54.5 µM [cytotoxic, partial curve]"
same,Potency,[2],"inconclusive: 50.4 µM [cytotoxic, partial curve] and inconclusive: 48.6 µM [cytotoxic, partial curve] and inconclusive: 61.1 µM [cytotoxic, partial curve]"
same,Potency,[3],"inconclusive: 40.1 µM [cytotoxic, partial curve] and inconclusive: 54.5 µM [cytotoxic, partial curve]"
same,Potency,[6],"inconclusive: 105 µM [cytotoxic, single point]"
O=C1NC2CCCCN2C12CCN(CCCN1c3ccccc3CCc3ccc(Cl)cc31)CC2 (stereo not drawn),Potency,[1],"inconclusive: 29.8 µM [cytotoxic, partial curve]"
same,Potency,[2],"inconclusive: 29.8 µM [cytotoxic, partial curve]"
same,Potency,[3],"inconclusive: 23.7 µM [cytotoxic, partial curve]"
same,Potency,[4],active: 10.6 µM
same,Potency,[5],"inconclusive: 18.8 µM [inhibitor, partial curve]"
same,Potency,[7],inconclusive: 49.2 µM
same,Potency,[8],inactive
same,Potency,[6],"inconclusive: 55.2 µM [cytotoxic, single point]"
CCCCOC(=O)[C@H](C)O,Potency,[1],inactive
same,Potency,[9],inactive
same,Potency,[5],inactive
c1ccc2sc(SSN3CCOCC3)nc2c1,Potency,[1],"inconclusive: 68.5 µM [cytotoxic, single point]"
same,Potency,[2],"inconclusive: 68.5 µM [cytotoxic, single point] and inconclusive: 68.6 µM [cytotoxic, single point]"
same,Potency,[10],active: 54.8 µM and active: 54.9 µM
same,Potency,[7],"inconclusive: 89.6 µM [falling, partial curve] and inconclusive: 80 µM [falling, partial curve]"
same,Potency,[6],"inconclusive: 101 µM [cytotoxic, single point] and inconclusive: 113 µM [cytotoxic, single point]"
same,Potency,[11],inconclusive: 61.1 µM [inhibitor]
same,Potency,[12],"inconclusive: 48.9 µM [falling, partial curve, poor fit]"
C=CC(=O)Nc1cc2c(Nc3ccc(F)c(Cl)c3)ncnc2cc1OCCCN1CCOCC1,Potency,[1],active: 13.3 µM
same,Potency,[2],active: 13.3 µM
same,Potency,[9],inactive
same,Potency,[13],active: 3.76 µM
same,Potency,[8],"inconclusive: 23.9 µM [falling, partial curve]"
same,Potency,[6],"inconclusive: 61.9 µM [cytotoxic, single point]"
same,Potency,[14],active: 9.52 µM
C[n+]1ccn(Cc2ccccc2)c1,Potency,[1],"inconclusive: 54.3 µM [cytotoxic, partial curve]"
same,Potency,[2],"inconclusive: 54.3 µM [cytotoxic, partial curve, poor fit]"
same,Potency,[8],"inconclusive: 0.435 µM [rising, single point]"
same,Potency,[11],inconclusive: 0.0001 µM [inhibitor]
same,Potency,[14],"inconclusive: 30.8 µM [cytotoxic, partial curve]"
O=c1cc(-c2ccc(O)cc2)oc2cc(O)cc(O)c12,Potency,[1],"inconclusive: 54.5 µM [cytotoxic, partial curve]"
same,Potency,[2],"inconclusive: 55.2 µM [cytotoxic, partial curve] and inconclusive: 54.5 µM [cytotoxic, partial curve]"
same,Potency,[9],active: 24.7 µM and active: 61.1 µM
same,Potency,[3],"inconclusive: 49.2 µM [cytotoxic, partial curve] and inconclusive: 30.6 µM [cytotoxic, partial curve]"
same,Potency,[10],"inconclusive: 22.2 µM [cytotoxic, single point] and inconclusive: 24.5 µM [cytotoxic, single point]"
same,Potency,[7],"inconclusive: 91 µM [falling, partial curve] and inconclusive: 50.5 µM [falling, partial curve]"
same,Potency,[6],"inconclusive: 28.8 µM [rising, partial curve] and inconclusive: 22.5 µM [rising, partial curve]"
same,Potency,[12],"inconclusive: 55.7 µM [falling, partial curve, poor fit]"
same,Potency,[14],"inconclusive: 49.6 µM [cytotoxic, single point] and inconclusive: 21.9 µM [cytotoxic, partial curve]"
